Assay results reported in PMC4234672.
These are yes or no findings as the source states them, for the method shown. Binding seen in cells or lysates may run through a third protein. Some results given as binding are weak or reduced against the parent protein; the word gives no strength.

Chains of the proteins cited; added tags and fusions are not shown.
UniProt Q91YI4: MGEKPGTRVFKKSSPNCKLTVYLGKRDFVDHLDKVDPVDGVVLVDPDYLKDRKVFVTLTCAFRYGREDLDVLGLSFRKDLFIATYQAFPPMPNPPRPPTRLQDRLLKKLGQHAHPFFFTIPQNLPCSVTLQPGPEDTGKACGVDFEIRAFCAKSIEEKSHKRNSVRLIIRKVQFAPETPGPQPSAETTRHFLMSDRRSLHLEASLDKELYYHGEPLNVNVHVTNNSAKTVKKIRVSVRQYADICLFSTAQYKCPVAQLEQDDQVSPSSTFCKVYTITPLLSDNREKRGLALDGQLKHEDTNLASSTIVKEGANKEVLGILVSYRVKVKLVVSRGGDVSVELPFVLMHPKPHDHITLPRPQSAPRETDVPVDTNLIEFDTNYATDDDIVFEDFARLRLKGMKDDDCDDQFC
UniProt P29066: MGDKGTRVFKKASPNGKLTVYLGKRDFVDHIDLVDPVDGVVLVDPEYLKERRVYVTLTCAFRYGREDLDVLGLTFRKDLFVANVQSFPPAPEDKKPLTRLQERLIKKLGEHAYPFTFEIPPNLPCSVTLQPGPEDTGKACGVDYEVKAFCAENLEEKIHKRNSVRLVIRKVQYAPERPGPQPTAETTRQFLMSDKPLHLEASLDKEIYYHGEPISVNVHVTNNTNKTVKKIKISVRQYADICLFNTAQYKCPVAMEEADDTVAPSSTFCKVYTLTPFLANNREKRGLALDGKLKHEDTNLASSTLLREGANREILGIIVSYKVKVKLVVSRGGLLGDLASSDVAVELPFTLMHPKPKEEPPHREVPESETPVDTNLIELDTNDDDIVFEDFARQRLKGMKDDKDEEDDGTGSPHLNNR

What was measured:
mouse melanopsin (mouse) [1] = biological target: T1, mouse melanopsin (mouse) (UniProt Q9QXZ9); assay: proximity ligation; β-arrestin stable HEK293 lines transfected with melanopsin or phosphonull melanopsin; 9-cis retinal; 10 min bright broad spectrum light (5000 lux), then fixed with 4% PFA; Duolink with anti-melanopsin (C-terminal) and anti-β-arrestin 1 or 2
T1 sequence: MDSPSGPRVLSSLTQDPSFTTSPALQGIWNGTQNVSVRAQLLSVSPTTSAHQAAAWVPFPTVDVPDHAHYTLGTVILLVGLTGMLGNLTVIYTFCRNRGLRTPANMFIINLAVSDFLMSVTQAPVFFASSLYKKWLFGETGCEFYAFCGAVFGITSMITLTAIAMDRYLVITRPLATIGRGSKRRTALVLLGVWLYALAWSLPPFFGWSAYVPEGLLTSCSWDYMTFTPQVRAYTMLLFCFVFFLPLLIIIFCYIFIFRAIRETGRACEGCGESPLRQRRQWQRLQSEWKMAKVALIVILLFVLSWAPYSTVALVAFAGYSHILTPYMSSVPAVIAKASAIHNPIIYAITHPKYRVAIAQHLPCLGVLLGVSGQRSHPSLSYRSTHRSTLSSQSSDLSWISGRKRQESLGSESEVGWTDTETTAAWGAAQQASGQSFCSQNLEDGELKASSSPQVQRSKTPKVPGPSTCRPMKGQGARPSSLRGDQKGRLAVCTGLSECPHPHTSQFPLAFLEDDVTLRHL

mouse melanopsin (mouse) [2] = biological target: T1, mouse melanopsin (mouse); assay: condition: only in the dark (cells fixed without light exposure); proximity ligation; β-arrestin stable HEK293 lines transfected with melanopsin; 9-cis retinal; fixed immediately in the dark with 4% PFA; Duolink with anti-melanopsin (C-terminal) and anti-β-arrestin 1 or 2
[3] = biological target: T2, mouse melanopsin-1D4 (mouse) (UniProt Q9QXZ9); assay: cross-linking + co-IP; β-arrestin stable HEK293 lines transfected with melanopsin-1D4 or phosphonull-1D4; 20 µM 9-cis retinal 1 h in the dark; light-exposed (bright white light, 30 min, 20°C) or dark-adapted; DSP cross-linking in the cells; solubilised in PBS with 1% dodecyl maltoside; 1D4 sepharose beads overnight 4°C; eluted with 50 mM DTT; blots for β-arrestin 1 and β-arrestin 2
T2 sequence: T1 sequence

[4] = biological target: T3, melanopsin (endogenous, mouse retina) (mouse (endogenous in C57BL/6 retina)) (UniProt Q9QXZ9); assay: proximity ligation; dark-adapted fixed retinal sections of C57BL/6 mice; Duolink with anti-melanopsin (C-terminal) and anti-β-arrestin 1 or 2
T3 sequence: T1 sequence

[5] = biological target: T3, melanopsin (endogenous, mouse retina) (mouse (endogenous in C57BL/6 retina)); assay: proximity ligation; light-exposed fixed retinal sections of C57BL/6 mice; Duolink with anti-melanopsin (C-terminal) and anti-β-arrestin 1 or 2

mouse β-arrestin 2 (from UniProt Q91YI4 1-410)
binding (mouse melanopsin (mouse) [1]): binds | binding (mouse melanopsin (mouse) [2]): no binding | binding [3]: binds

rat β-arrestin 1 (from UniProt P29066 1-418)
binding (mouse melanopsin (mouse) [1]): binds | binding (mouse melanopsin (mouse) [2]): no binding | binding [3]: binds

β-arrestin 2 (endogenous, mouse retina) (from UniProt Q91YI4 1-410)
binding [4]: no binding (condition: dark-adapted retinas) | binding [5]: binds
